# According to PubChem BioAssay AID686978 (National Center for Advancing Translational Sciences (NCATS), 2013):
# Several values for one entry are separate records, joined by “and”; a condition that tells them apart may be missing. Identical values can stand only once. Among all 420,000 compounds or so, about 64,000 (15%) were called active. Inconclusive means that the source gave no clear call. Such entries were picked first, then a sample of the others. The call rests on the fitted dose curve; in most records, active means well fitted inhibition curve with a large enough effect; inconclusive means small, poorly fitted or top-dose-only effect; inactive means flat fitted curve, though single readings scatter. No potency is given beside an inconclusive call; the fits are too rough.
# Assay: qHTS for Inhibitors of human tyrosyl-DNA phosphodiesterase 1 (TDP1): qHTS in cells in absence of CPT; further: nearly all actives have a fitted effect of over 55% in size
# Conditions: DT40 Tdp1-/- hTDP1 cells, no CPT, ATP luminescence, 48 h; activity change, negative = growth inhibition: at 46.2 µM (top of the series) unless noted
# Procedure, shortened: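 Growth of hTDP1-complemented DT40 Tdp1-knockout cells is measured by ATP luminescence after at least 48 hr compound exposure at 37 °C, with DMSO substituting for the 20 nM CPT used in the parallel screen.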
# On the % scale 0 is the no-effect control and ±100 the full control effect; potency means the concentration at half of the fitted maximal effect; tags describe the fitted curve by direction and shape.
Structure (SMILES),Potency,"activity change, negative = growth inhibition"
CCCCn1c(N)c(N(CCOC)C(=O)C2CC(=O)N(c3ccc(CC)cc3)C2)c(=O)[nH]c1=O (stereo not drawn),inactive,–
O=C(CN1CCN(S(=O)(=O)c2ccc(Cl)c(C(F)(F)F)c2)CC1)NC(=O)NC1CCCCC1,"inconclusive [inhibitor, single point]",–
Cc1cc2ncn(CCOc3ccccc3C#N)c2cc1C,"inconclusive [inhibitor, single point]",–
Cc1nc(CCNC(=O)c2cc(COc3ccc(F)cc3Cl)on2)sc1C,–,inconclusive: -32.9% [inhibitor]
Cn1ncc(Br)c1C(=O)NC(=S)N1CCN(c2ccccn2)CC1,"inconclusive [inhibitor, single point]",–
CC1CC(C)CN(CCOCCSc2ccc(Cl)cc2)C1 (stereo not drawn),active: 16.4 µM,–
CC(C)(C)OC(=O)N/N=C/c1cccn1-c1ccc([N+](=O)[O-])cc1,inactive,–
CCOC(=O)c1c(C)n(C)c2cc(Br)c(C(=O)OC)cc12,"inconclusive [inhibitor, partial curve]",–
Cc1ccc(-c2onc(C)c2C)cc1S(=O)(=O)N1CCOc2ccccc21,active: 20.6 µM,–
CCOc1ccc2[nH]c(=O)c(CN(Cc3ccc(F)cc3)C(=O)N3CCCC3)cc2c1,"inconclusive [inhibitor, single point]",–
Cc1ccc(CN(C(=O)c2ccccc2[N+](=O)[O-])c2ccccn2)cc1,active: 11.6 µM,–
Cc1cc(N2CCC(C(=O)NCCC(C)C)CC2)n2nc(C)c(-c3ccc(Cl)cc3)c2n1,inactive,–
Cc1ccc(C(=O)Nc2ccc(S(=O)(=O)N3CCOCC3)cc2)cc1Br,–,inconclusive: -32.3% [inhibitor]
COc1ccc(COc2cc(-c3cccc(OC)c3)nc3ccc(NC(=O)c4ccc(OC)cc4)cc23)cc1,active: 3.26 µM,–
COc1ccc(NC(=O)c2cccc(N3C(=O)C4C5C=CC(C6CC56)C4C3=O)c2)c(OC)c1 (stereo not drawn),"inconclusive [inhibitor, single point]",–
CC(=O)Nc1ccc(S(=O)(=O)NC2(C(F)(F)F)C(=O)Nc3c2c(=O)[nH]c(=O)n3Cc2cccnc2)cc1 (stereo not drawn),inactive,–
COc1ccc(CNC(=O)C(C)N2C(=O)COc3ccc(C)cc32)c(OC)c1 (stereo not drawn),"inconclusive [inhibitor, partial curve, poor fit]",–
O=C(c1ccc(S(=O)(=O)NCc2ccco2)cc1)N1CCCC1,inactive,–
COc1c(OC(C)=O)ccc(/C=N\NC(=O)c2ccc(Br)cc2)c1[N+](=O)[O-],"inconclusive [inhibitor, partial curve, poor fit]",–
CCOC(=O)c1ccc(-n2cnc(-c3ccc([N+](=O)[O-])cc3)c2)cc1,"inconclusive [inhibitor, partial curve]",–
COc1cc(OC)cc(C(=O)NC(C(=O)Nc2ccc3c(c2)CCC3)C(C)C)c1 (stereo not drawn),"inconclusive [inhibitor, single point]",–
c1ccc(-c2csc(NC3=NCCCCC3)n2)cc1,inactive,–
Nc1ccc(Cl)c(S(=O)(=O)Nc2ccc(Cl)cc2)c1,inactive,–
O=c1cnc2cnc(Oc3ccccc3)nc2n1C1CC1,inactive,–

Structure (SMILES),Potency,"activity change, negative = growth inhibition"
C/C(CCC(C)C)=N\NC(=S)Nc1cc(S(=O)(=O)N2CCOCC2)ccc1N1CCOCC1,"inconclusive [inhibitor, single point]",–
COc1ccccc1N(CC(O)COc1ccc(C)cc1)S(=O)(=O)c1ccccc1 (stereo not drawn),"inconclusive [inhibitor, single point]",–
COc1ccc(S(=O)(=O)NCc2ccc(C(=O)NCCN(C)Cc3ccccc3)cc2)cc1,active: 20.6 µM,–
CSc1ccc(CN(C)C(=O)c2cc(=O)[nH]c3ccccc23)cc1,"inconclusive [inhibitor, partial curve]",–
CCN(c1ccc(OC)cc1)S(=O)(=O)N1CCCC(C(=O)NCc2ccccc2Br)C1 (stereo not drawn),"inconclusive [inhibitor, single point]",–
Cc1cccc(C)c1-n1nnnc1C1(C)CCC(=O)N1CCc1ccccc1F (stereo not drawn),"inconclusive [inhibitor, single point]",–
CC(NC=O)c1nc2ccccc2n1CCc1ccccc1 (stereo not drawn),"inconclusive [inhibitor, single point]",–
O=C(Cn1nnc(-c2ccc(F)cc2)n1)Nc1cccc(S(=O)(=O)N2CCCC2)c1,"inconclusive [inhibitor, single point]",–
CN(C)CCOc1ccc(C(C)(C)c2ccccc2)cc1,"inconclusive [inhibitor, single point]",–
COc1ccc(-c2nc(-c3ccccc3)c(-c3ccc(F)cc3)[nH]2)c(OC)c1C,"inconclusive [inhibitor, single point]",–
O=C(NCCN1CCOCC1)c1cc(-c2ccco2)on1,active: 14.6 µM,–
COc1cc(/C=C(/NC(=O)c2ccccc2)C(=O)Nc2cccc(O)c2)c([N+](=O)[O-])cc1OC,inactive,–
Cc1ccc(CN2CCN(Cc3nc4ccccc4nc3C)CC2CCO)cc1 (stereo not drawn),inactive,–
O=C1c2c(Cl)c(Cl)c(Cl)c(Cl)c2C(=O)N1c1nccs1,"inconclusive [inhibitor, single point]",–
Cc1nc(CCNC(=O)c2ccccc2)cs1,–,inconclusive: -19.2% [inhibitor]
CC1(CO)COC2(OC1)C(=O)Nc1ccccc12 (stereo not drawn),inactive,–
CC1CN(C(=O)CCC(=O)NCc2ccccc2)c2cc(Cl)ccc2O1 (stereo not drawn),"inconclusive [inhibitor, single point]",inconclusive: -32.6% [inhibitor]
COCCNc1nc(SC)nc2sc3c(c12)CCN(C)C3,inactive,–
CCNC(=O)c1c(NC(=O)c2cc(-c3cc(C)ccc3O)n[nH]2)sc2c1CCCC2,active: 16.4 µM,–
C/C(=N\O)c1sc(-c2ccccc2)nc1C,"inconclusive [inhibitor, single point]",–
O=C(Nc1cc(C(=O)Nc2ccccc2C(=O)O)cc(C(=O)Nc2ccccc2C(=O)O)c1)c1ccccc1,"inconclusive [inhibitor, partial curve]",–
Cc1ccc(Cl)cc1NC(=O)Cn1ncc2c(C)n(Cc3ccccc3F)c(C)c2c1=O,"inconclusive [inhibitor, single point]",–
Cc1c(CC(=O)Nc2ccc(Cl)cc2)sc2ccc(Cl)cc12,"inconclusive [inhibitor, partial curve]",–
O=S(=O)(NCCc1csc2nc(-c3ccc(F)cc3)nn12)c1ccc(Oc2ccccc2)cc1,active: 20.6 µM,–

Structure (SMILES),Potency,"activity change, negative = growth inhibition"
Cc1cc(C)cc(N2C(=O)CCSC23C(=O)N(Cc2ccccc2)c2ccccc23)c1 (stereo not drawn),active: 5.8 µM,–
O=C(COc1ccccc1C(=O)Nc1ccccc1)Nc1cccc([N+](=O)[O-])c1,"inconclusive [inhibitor, single point]",–
CN(C(=O)Cn1nc(Cl)ccc1=O)C1CCCN(Cc2ccccc2F)C1 (stereo not drawn),inactive,–
O=C(Nc1cccc(OC(F)(F)F)c1)C1Cc2c(-c3cccc(F)c3)ccnc2O1 (stereo not drawn),"inconclusive [inhibitor, single point]",–
O=C(C[n+]1cccc(C(=O)Nc2ccccc2)c1)c1ccc(Cl)cc1,active: 16.4 µM,–
O=C(/C=C/c1ccc(-c2cccc([N+](=O)[O-])c2)o1)N1CCOCC1,active: 18.4 µM,–
CC(=O)Nc1ccc(-c2ccnc3c2CC(C(=O)Nc2ccc(Cl)c(C(F)(F)F)c2)O3)cc1 (stereo not drawn),"inconclusive [inhibitor, partial curve, poor fit]",–
O=C(CS)Nc1ccc2ccccc2c1,active: 3.55 µM and active: 4.11 µM,–
Cc1[nH]nc2c1C1(CCN(C(=O)OCc3ccccc3)CC1)C(C#N)=C(N)O2,inactive,–
c1ccc(Sc2ccncc2)cc1,inactive,–
CCS(=O)(=O)NCCc1cc2ccc(C)cc2[nH]c1=O,inactive,–
Cc1ccc(C(C(=O)NC2CCCCC2)N(Cc2cccnc2)C(=O)C2COc3ccccc3O2)o1 (stereo not drawn),"inconclusive [inhibitor, single point]",–
Cc1cc(C(=O)NNC(=O)c2ccccc2O)c(C)o1,"inconclusive [inhibitor, single point]",–
COc1cccc(CNCCSc2nnnn2C)c1OCc1ccc(F)cc1,active: 20.6 µM,–
COc1cccc2sc(=NC(=O)CCS(=O)(=O)c3ccc(C)cc3)n(C)c12,active: 20.6 µM,–
CC(C)c1ccc(NC(=O)CCn2c(=O)c3cccn3c3ccccc32)cc1,active: 14.6 µM,–
COc1cc(O)cc2c1[C@@H]1Oc3c(ccc(O)c3CC=C(C)C)[C@@H]1CO2,active: 23.1 µM,–
COc1ccccc1CN1CCCC2(CCNCC2)C1,"inconclusive [inhibitor, single point]",–
COc1cccc(CNC(=O)C(CC(C)C)NC(=O)c2ccccc2C)c1 (stereo not drawn),inactive,–
Cc1ccc(NC(=O)c2cnn(-c3ccccc3)c2C)cc1,"inconclusive [inhibitor, partial curve, poor fit]",–
COc1ccc(NC(=O)C2CCCN2S(=O)(=O)c2cccc3cccnc23)c(OC)c1 (stereo not drawn),"inconclusive [inhibitor, single point]",–
COc1ccc(O)c(/C=N/n2c(-c3ccco3)csc2=Nc2cccnc2)c1,"inconclusive [inhibitor, full curve]",–
O=C1Nc2ccccc2O/C1=C\c1ccccc1Br,inactive,–
Cc1nc(-c2ccc(S(=O)(=O)N3CCN(C(c4ccccc4)c4ccccc4)CC3)s2)cs1,"inconclusive [inhibitor, single point]",–
